Data on four substances can be found in publication PMC11841259.

Chains of the proteins cited; added tags and fusions are not shown. Lines headed by an entry give the natural chain unless they say otherwise; changes in a name come on top. A line that says so, or that is headed by a name, gives the form on record, which may keep a tag or linker.
Myc-tagged RORγt Y479F mutant (P51450-2, form named): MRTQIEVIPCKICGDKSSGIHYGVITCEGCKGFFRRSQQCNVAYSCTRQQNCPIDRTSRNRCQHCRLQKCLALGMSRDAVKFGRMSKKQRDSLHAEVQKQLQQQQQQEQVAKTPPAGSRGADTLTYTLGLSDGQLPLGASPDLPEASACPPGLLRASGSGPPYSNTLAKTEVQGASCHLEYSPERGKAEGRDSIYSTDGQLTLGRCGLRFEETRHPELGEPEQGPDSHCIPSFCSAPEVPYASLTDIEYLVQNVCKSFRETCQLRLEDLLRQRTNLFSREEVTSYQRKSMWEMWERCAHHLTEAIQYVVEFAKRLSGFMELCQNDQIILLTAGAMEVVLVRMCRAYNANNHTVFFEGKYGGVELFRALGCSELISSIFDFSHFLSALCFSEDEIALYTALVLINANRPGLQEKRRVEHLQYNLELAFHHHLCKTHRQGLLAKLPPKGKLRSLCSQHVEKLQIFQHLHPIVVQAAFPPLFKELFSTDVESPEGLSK
RORγt (endogenous, mouse Th17 cells) (P51450-2, form named): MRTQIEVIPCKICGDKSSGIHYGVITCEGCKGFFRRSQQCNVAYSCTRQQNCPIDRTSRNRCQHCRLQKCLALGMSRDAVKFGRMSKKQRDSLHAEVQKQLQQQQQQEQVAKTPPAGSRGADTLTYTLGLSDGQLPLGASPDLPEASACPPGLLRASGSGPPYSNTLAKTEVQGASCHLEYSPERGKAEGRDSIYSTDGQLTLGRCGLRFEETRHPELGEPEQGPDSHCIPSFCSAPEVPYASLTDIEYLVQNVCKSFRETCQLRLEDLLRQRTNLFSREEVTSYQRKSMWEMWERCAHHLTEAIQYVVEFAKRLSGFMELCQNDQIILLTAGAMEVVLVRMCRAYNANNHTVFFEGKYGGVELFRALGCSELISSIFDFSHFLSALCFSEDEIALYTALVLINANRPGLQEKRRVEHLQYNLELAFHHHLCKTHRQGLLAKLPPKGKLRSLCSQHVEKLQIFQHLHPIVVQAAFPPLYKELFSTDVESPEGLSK
GST-Nedd4 (P46934-4, form named): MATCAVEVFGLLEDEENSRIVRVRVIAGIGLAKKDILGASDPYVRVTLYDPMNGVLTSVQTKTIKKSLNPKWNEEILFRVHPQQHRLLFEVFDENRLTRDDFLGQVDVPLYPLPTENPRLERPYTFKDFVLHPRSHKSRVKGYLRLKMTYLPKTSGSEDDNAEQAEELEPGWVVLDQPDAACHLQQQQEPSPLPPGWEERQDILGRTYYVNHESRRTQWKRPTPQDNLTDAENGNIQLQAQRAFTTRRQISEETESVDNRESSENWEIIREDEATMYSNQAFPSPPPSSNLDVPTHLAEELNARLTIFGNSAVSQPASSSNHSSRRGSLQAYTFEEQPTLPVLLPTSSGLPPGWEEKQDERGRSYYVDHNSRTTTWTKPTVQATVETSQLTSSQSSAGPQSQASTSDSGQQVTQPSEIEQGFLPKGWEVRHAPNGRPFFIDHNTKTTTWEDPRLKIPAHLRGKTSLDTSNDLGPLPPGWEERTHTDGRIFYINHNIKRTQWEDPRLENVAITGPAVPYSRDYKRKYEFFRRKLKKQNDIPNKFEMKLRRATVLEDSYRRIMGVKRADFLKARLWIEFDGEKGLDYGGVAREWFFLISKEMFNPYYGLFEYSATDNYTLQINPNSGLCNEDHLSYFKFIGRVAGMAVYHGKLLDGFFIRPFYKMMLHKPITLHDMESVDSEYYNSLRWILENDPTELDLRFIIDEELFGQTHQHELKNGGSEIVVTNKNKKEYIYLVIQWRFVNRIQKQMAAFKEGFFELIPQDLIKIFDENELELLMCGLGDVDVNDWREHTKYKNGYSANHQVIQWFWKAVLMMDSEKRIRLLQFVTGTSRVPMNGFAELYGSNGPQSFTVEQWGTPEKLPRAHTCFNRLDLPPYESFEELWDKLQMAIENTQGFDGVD
UniProt P46935: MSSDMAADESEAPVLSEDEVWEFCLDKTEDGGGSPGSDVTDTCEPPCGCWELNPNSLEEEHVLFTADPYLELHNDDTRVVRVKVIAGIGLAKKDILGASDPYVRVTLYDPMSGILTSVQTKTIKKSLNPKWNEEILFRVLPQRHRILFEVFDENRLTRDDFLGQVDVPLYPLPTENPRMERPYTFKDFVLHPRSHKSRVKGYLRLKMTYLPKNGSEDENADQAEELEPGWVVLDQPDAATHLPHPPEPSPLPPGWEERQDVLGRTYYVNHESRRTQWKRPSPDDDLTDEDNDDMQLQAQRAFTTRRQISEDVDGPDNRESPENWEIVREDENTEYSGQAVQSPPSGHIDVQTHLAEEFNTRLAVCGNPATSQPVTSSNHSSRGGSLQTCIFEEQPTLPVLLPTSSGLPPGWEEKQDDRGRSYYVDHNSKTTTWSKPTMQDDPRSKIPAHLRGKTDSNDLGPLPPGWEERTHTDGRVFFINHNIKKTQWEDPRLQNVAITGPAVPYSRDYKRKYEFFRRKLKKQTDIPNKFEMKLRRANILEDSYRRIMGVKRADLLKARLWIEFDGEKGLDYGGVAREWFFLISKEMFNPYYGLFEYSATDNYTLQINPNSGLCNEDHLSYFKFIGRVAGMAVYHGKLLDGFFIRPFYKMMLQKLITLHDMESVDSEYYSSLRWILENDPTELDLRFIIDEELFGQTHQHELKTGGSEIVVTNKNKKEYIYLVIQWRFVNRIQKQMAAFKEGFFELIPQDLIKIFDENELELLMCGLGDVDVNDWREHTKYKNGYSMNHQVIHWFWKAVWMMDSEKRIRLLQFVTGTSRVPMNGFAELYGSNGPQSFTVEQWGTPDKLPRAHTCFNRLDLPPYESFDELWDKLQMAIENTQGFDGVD
UniProt Q8CFI0: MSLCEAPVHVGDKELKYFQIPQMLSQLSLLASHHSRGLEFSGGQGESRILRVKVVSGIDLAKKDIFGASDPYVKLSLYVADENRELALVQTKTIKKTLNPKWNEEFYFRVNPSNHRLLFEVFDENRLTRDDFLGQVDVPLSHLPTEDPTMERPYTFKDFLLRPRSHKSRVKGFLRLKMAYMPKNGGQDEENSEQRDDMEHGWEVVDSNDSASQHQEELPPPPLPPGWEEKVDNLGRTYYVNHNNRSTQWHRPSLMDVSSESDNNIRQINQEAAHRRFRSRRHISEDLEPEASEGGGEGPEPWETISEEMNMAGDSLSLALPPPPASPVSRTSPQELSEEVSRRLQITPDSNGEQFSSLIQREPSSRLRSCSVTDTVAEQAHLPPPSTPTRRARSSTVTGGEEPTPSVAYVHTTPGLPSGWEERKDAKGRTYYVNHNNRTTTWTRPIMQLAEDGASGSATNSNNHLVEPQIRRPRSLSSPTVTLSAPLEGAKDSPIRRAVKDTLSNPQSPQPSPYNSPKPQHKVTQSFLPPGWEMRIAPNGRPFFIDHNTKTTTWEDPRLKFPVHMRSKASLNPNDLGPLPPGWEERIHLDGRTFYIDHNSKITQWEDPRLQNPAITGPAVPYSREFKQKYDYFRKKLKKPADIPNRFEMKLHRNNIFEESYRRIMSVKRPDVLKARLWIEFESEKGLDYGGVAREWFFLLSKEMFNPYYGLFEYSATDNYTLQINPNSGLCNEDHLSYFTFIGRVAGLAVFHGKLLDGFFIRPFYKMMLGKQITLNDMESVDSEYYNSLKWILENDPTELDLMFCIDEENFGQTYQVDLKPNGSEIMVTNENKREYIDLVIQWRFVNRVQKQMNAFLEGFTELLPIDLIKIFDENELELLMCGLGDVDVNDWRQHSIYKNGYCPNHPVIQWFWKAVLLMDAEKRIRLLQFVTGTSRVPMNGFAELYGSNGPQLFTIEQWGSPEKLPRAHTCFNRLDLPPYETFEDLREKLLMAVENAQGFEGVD

Results are given in words; binding and its absence hold for the method and conditions named. In cells and extracts the contact can be indirect. Some entries that bind do so weakly or less than the wild type.

In assay [1] the target is Myc-tagged RORγt Y479F mutant (UniProt P51450). Nature of the assay: co-IP; HEK293T cells transfected with Flag-tagged Nedd4 or its truncated fragments and Myc-tagged RORγt or RORγt Y479F; 0.5% NP40 lysis buffer; immunoprecipitated with anti-Myc, blotted with anti-Flag.
The target of a further assay is Myc-tagged RORγt (UniProt P51450). The assay is described as above.
Assay [2] has as its target RORγt (endogenous, mouse Th17 cells) (mouse (endogenous in Th17 cells)) (UniProt P51450). Kind of assay: co-IP; endogenous proteins; mouse Th17 cells (unstimulated or restimulated with anti-CD3 and anti-CD28) lysed in 0.5% NP40 lysis buffer; immunoprecipitated with anti-RORγt conjugated to agarose, blotted with anti-Nedd4 and anti-Nedd4-2.
The target in a further assay is GST-Nedd4 (UniProt P46934). Kind of assay: pull-down; GST-Nedd4 or GST-Nedd4 WW incubated with Th17 cell lysates; glutathione sepharose beads, 4 °C, washed 5 times with 1x TBST; only the target purified.

As for “Flag-tagged Nedd4 (full-length) (from UniProt P46934-4 1-900) (enzyme)”, the binding entry was “no binding” in assay [1] and “binds” with Myc-tagged RORγt.
For the substance “Nedd4 (endogenous, mouse Th17 cells) (from UniProt P46935 1-887) (enzyme)”, the binding result in assay [2] was “binds”.
As for “Nedd4-2 (endogenous, mouse Th17 cells) (from UniProt Q8CFI0 1-1004) (enzyme)”, the binding result in assay [2] is “binds”.
Turning to “RORγt (endogenous, mouse Th17 cells) (from UniProt P51450-2 1-495)”, the binding entry in the assay with GST-Nedd4 is “binds”.
